Measurements from PubChem BioAssay AID624417 (National Center for Advancing Translational Sciences (NCATS), 2012).
In all, about 410,000 compounds went through this assay and about 6,400 (1.6%) were called active. The inconclusive results got no clear call from the source; some entries with a clear call stand among them for comparison. Calls follow the shape of the dose curve; as a rule, active = well fitted inhibition curve with a large enough effect; inconclusive = small, poorly fitted or top-dose-only effect; inactive = no such curve, though single readings can be large or run the other way. No potency is given beside an inconclusive call; the fits are too rough.

biological target: Glucagon-like peptide 1 receptor (Homo sapiens) (UniProt P43220); test: qHTS of GLP-1 Receptor Inverse Agonists (Inhibition Mode); settings: HEK293 GLP-1R CRE-luciferase, luminescence, 24 h, GLP-1R form is constitutively active; series mostly up to 38.3 µM; also: nearly all actives have a fitted effect of over 55% in size
Sequence of UniProt P43220 (P43220 whole entry, looked up): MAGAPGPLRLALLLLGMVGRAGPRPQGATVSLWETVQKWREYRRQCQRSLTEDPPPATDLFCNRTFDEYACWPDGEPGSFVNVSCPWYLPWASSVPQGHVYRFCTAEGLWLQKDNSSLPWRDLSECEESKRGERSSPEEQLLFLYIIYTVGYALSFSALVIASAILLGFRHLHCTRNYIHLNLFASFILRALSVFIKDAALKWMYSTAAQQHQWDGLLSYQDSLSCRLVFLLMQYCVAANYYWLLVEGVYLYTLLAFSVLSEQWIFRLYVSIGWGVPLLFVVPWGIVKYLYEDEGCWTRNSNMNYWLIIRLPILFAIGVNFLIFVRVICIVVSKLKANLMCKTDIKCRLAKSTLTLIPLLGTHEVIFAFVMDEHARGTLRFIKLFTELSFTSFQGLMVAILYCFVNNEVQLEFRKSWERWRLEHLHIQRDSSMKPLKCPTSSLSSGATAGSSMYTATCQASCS
In short: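 GLP-1R inverse agonism mode: basal reporter luminescence in engineered HEK293 cells measured after one day of compound exposure at 37 deg C, with a 12 min room-temperature detection step.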
Potency is read from the fitted curve at half-maximal effect; tags tell the direction and shape of the fitted curve.

**Q.** How did the Potency turn out when `O=C1OC(/C(=C\Nc2cc(Cl)ccc2O)[N+](=O)[O-])c2ccccc21` (centres undefined) was run?
**A.** inconclusive [inhibitor, partial curve, poor fit]

**Q.** How did the Potency turn out when `Cc1cc(OCCN2CCCC2)ccc1C(C)C` was run?
**A.** inconclusive [inhibitor, full curve, poor fit]

**Q.** How did the Potency turn out when `O=S(=O)(Nc1cccc(S(=O)(=O)N2CCCC2)c1)c1ccc(Br)cc1` was run?
**A.** inconclusive [inhibitor, single point]

**Q.** For `COc1ccccc1-c1cc2nc(-c3ccccc3)cc(N3CCN(C(=O)c4ccoc4)CC3)n2n1`, which Potency is on record?
**A.** inconclusive [inhibitor, single point]

**Q.** How did the Potency turn out when `Cc1cc(-c2onc3ccc(Cl)cc23)ccc1O` was run?
**A.** inconclusive [inhibitor, single point]

**Q.** For `CCOc1ccc(CCNC(=O)c2ccc3c(c2)c(C)c(C)n3C)cc1`, which Potency is on record?
**A.** inconclusive [inhibitor, partial curve, poor fit]

**Q.** Which Potency does the source give for `c1ccc(CN2CCN(c3ncnc4c3[nH]c3ccccc34)CC2)cc1` here?
**A.** inactive

**Q.** Which Potency does the source give for `Fc1ccccc1C1c2[nH]c3ccccc3c2CCN1CCCn1cccn1` (centres undefined) here?
**A.** inconclusive [inhibitor, partial curve, poor fit]

**Q.** `COc1ccccc1CCNC(=O)CC1C(=O)NCCN1CCCc1ccccc1` (centres undefined) was tested. Which Potency did it give?
**A.** inconclusive [inhibitor, partial curve, poor fit]

**Q.** For `Cc1cc(Sc2nnc(N)s2)c2ccccc2n1`, which Potency is on record?
**A.** inconclusive [inhibitor, partial curve, poor fit]

**Q.** For `COc1cccc(OCCOCC(O)CN2CCN(Cc3ccc(Cl)cc3)CC2)c1` (centres undefined), which Potency is on record?
**A.** inconclusive [inhibitor, partial curve]

**Q.** For `O=C(Nc1ccc(N2CCCCC2)cc1)c1ccc(F)cc1F`, which Potency is on record?
**A.** inconclusive [inhibitor, single point]

**Q.** `CCOC(=O)c1cnc2c(C(F)(F)F)cccc2c1N1CCN(C)CC1` was tested. Which Potency did it give?
**A.** inconclusive [inhibitor, partial curve, poor fit]

**Q.** Which Potency does the source give for `CC(=O)N1CCN(C(=S)c2ccc(N(C)C)cc2)CC1` here?
**A.** inactive

**Q.** How did the Potency turn out when `COc1cccc(-c2cc3c(c4c2ccn4C)C2CCC3C2)c1` (centres undefined) was run?
**A.** inconclusive [inhibitor, single point]

**Q.** Which Potency does the source give for `COc1ccc(CNC(=O)c2cnn3c(C(F)F)cc(C)nc23)cc1` here?
**A.** inactive

**Q.** How did the Potency turn out when `CC(C)=C1C2CCC1C1C(=O)N(NC(=O)COc3ccc(Cl)c(C)c3)C(=O)C21` (centres undefined) was run?
**A.** inconclusive [inhibitor, partial curve, poor fit]

**Q.** Which Potency does the source give for `Cc1ccc(C(=O)/C=C2\NCC(C)NC2=O)cc1` (centres undefined) here?
**A.** inconclusive [inhibitor, partial curve, poor fit]

**Q.** Which Potency does the source give for `Cc1ccc2ccccc2c1CSc1nc(N)nc2c1ncn2CC(C)C` here?
**A.** inconclusive [inhibitor, single point]

**Q.** For `CCCN(c1ccc(C(C)C)cc1)S(=O)(=O)c1c(C)noc1C`, which Potency is on record?
**A.** inconclusive [inhibitor, single point]

**Q.** How did the Potency turn out when `O=C1S/C(=C\c2cccs2)C(=O)N1c1ccc(O)cc1` was run?
**A.** inactive

**Q.** Which Potency does the source give for `Cc1ccc(-c2nc(SCC(=O)NCC3CCCO3)c(-c3ccc(Cl)cc3)[nH]2)cc1` (centres undefined) here?
**A.** inconclusive [inhibitor, full curve]

**Q.** `COc1ccc2nc(N3C(=O)C(O)=C(C(=O)c4ccco4)C3c3ccc(C)o3)sc2c1` (centres undefined) was tested. Which Potency did it give?
**A.** inactive

**Q.** With `CC(=O)N1c2ccccc2C(C)(C)C2CCC(C)CC21` (centres undefined) as the molecule, how does the Potency read?
**A.** inconclusive [inhibitor, single point]

**Q.** With `COc1ccccc1N1CCN(C(=O)CCc2c(C)nn(-c3ccc(N4CCCC4)nn3)c2C)CC1` as the molecule, how does the Potency read?
**A.** inactive

**Q.** With `CC1Cc2nc(SCC(=O)NCC3CCCO3)n(C)c(=O)c2S1` (centres undefined) as the molecule, how does the Potency read?
**A.** inactive

**Q.** `Cc1c(/C=N\NC(=O)C2COc3ccc(C(C)(C)C)cc3O2)c2ccccc2n1C` (centres undefined) was tested. Which Potency did it give?
**A.** inconclusive [inhibitor, full curve, poor fit]

**Q.** With `Cc1ccc(NC(=O)CSc2ccccc2NC(=O)c2ccccc2Cl)cc1Cl` as the molecule, how does the Potency read?
**A.** inconclusive [inhibitor, partial curve]

**Q.** For `CCCCN(C(=O)c1cccc2c(=O)c(C)c(-c3ccccc3)oc12)c1ccccc1`, which Potency is on record?
**A.** active: 10 µM

**Q.** Which Potency does the source give for `CCC(C)c1ccccc1NC(=O)Cc1coc2cc3c(cc12)CCC3` (centres undefined) here?
**A.** inconclusive [inhibitor, partial curve, poor fit]

**Q.** `CCOC(=O)c1cnn(-c2ccc(OC)cc2)c1C1CCN(C(=O)OC(C)(C)C)CC1` was tested. Which Potency did it give?
**A.** inconclusive [inhibitor, single point]

**Q.** `O=C(c1ccc(F)cc1)C1CCN(C(=O)Nc2ccc(F)cc2)CC1` was tested. Which Potency did it give?
**A.** inconclusive [inhibitor, partial curve, poor fit]

**Q.** How did the Potency turn out when `CC1(C)Cc2cccc(OCC(=O)NCCOc3ccccc3)c2O1` was run?
**A.** inconclusive [inhibitor, partial curve, poor fit]

**Q.** For `CC(C)OC(=O)Cc1nc2sc(-c3ccccc3)cc2c(=O)[nH]1`, which Potency is on record?
**A.** inconclusive [inhibitor, single point]

**Q.** Which Potency does the source give for `C=C[C@]1(C)C[C@H]1[C@H](NP(=O)(c1ccccc1)c1ccccc1)c1ccccc1` here?
**A.** inactive

**Q.** Which Potency does the source give for `Cc1ccccc1-n1c(SCC(=O)Nc2ccccc2)nc2nc3c(cc2c1=O)CCCC3` here?
**A.** inconclusive [inhibitor, single point]

**Q.** `CNC(=S)N1N=C(c2cccs2)CC1c1ccc(OC)cc1` (centres undefined) was tested. Which Potency did it give?
**A.** inconclusive [inhibitor, partial curve]

**Q.** `O=C(COC(=O)c1cccc(S(=O)(=O)N2CCc3ccccc32)c1)Nc1ncc(C(F)(F)F)cc1Cl` was tested. Which Potency did it give?
**A.** inactive

**Q.** With `CSc1cccc(NC(=O)COc2ccccc2)c1` as the molecule, how does the Potency read?
**A.** inconclusive [inhibitor, single point]

**Q.** How did the Potency turn out when `Cc1nn(-c2ccc(F)cc2)c(-n2cccc2)c1C(=O)N1CCN(c2ccc(F)cc2)CC1` was run?
**A.** inconclusive [inhibitor, partial curve]

**Q.** For `Cc1ccsc1C(=O)N1CC=C(c2ccccc2)CC1`, which Potency is on record?
**A.** inconclusive [inhibitor, single point]

**Q.** With `CC1C(=O)N(Cc2cn(Cc3ccco3)nn2)CCS(=O)(=O)N1Cc1ccc(-c2ccccc2Cl)cc1` (centres undefined) as the molecule, how does the Potency read?
**A.** inconclusive [inhibitor, single point]

**Q.** With `CC1(c2ccccc2)CC(C)(C)N(C(=O)C2CCCO2)c2ccccc21` (centres undefined) as the molecule, how does the Potency read?
**A.** inconclusive [inhibitor, single point]

**Q.** Which Potency does the source give for `CC1(c2ccccc2)CC(C)(C)N(C(N)=O)c2ccccc21` (centres undefined) here?
**A.** inconclusive [inhibitor, partial curve, poor fit]

**Q.** `CC1(C)Cc2c(sc3[nH]c(=O)n(CC(=O)NCC4CCCO4)c(=O)c23)CO1` (centres undefined) was tested. Which Potency did it give?
**A.** inactive

**Q.** `Cc1ccc(C(=O)Nc2c(-c3ccccc3)nc3ccccn23)cc1C` was tested. Which Potency did it give?
**A.** inconclusive [inhibitor, full curve, poor fit]

**Q.** For `COc1ccc(NC(=O)COc2ccccc2C)cc1S(=O)(=O)N1CCCCC1`, which Potency is on record?
**A.** inconclusive [inhibitor, single point]

**Q.** How did the Potency turn out when `Cc1onc(-c2ccccc2Cl)c1C(=O)OCC(=O)N1CCCc2ccccc21` was run?
**A.** active: 10 µM

**Q.** Which Potency does the source give for `COC(=O)c1sccc1NS(=O)(=O)c1ccc(OC)cc1` here?
**A.** inconclusive [inhibitor, single point]

**Q.** For `CC1=CC2=NC(=O)CC(C)(C(=O)N(CC(=O)NC(C)(C)C)Cc3ccccc3)N2C=C1` (centres undefined), which Potency is on record?
**A.** inconclusive [inhibitor, single point]

**Q.** `Cc1noc(C)c1S(=O)(=O)N(Cc1ccccc1)C(C)C` was tested. Which Potency did it give?
**A.** inconclusive [inhibitor, single point]

**Q.** For `O=C(CCCOc1ccc(Cl)cc1Cl)N1CCN(c2ccccn2)CC1`, which Potency is on record?
**A.** inactive

**Q.** With `CC(C)=C1C2CCC1C1C(=O)N(c3nc(-c4ccc(F)cc4)c(C)s3)C(=O)C21` (centres undefined) as the molecule, how does the Potency read?
**A.** inconclusive [inhibitor, partial curve, poor fit]

**Q.** Which Potency does the source give for `COc1ccc(S(=O)(=O)N2CCCCC2c2cc(C(=O)Nc3ccc(F)c(Cl)c3)no2)cc1` (centres undefined) here?
**A.** inconclusive [inhibitor, single point]

**Q.** Which Potency does the source give for `CCCCn1c(N)c(N(CCC(C)C)C(=O)c2ccccc2-n2cnnn2)c(=O)[nH]c1=O` here?
**A.** inactive

**Q.** Which Potency does the source give for `COc1ccc(NC(=O)Nc2nnc(N3CCCCCC3)s2)cc1` here?
**A.** inactive

**Q.** `Clc1ccc(Cn2cc(/C=N/n3cnnc3)c3ccccc32)cc1` was tested. Which Potency did it give?
**A.** inconclusive [inhibitor, partial curve, poor fit]

**Q.** For `Cc1cc(NC(=O)C(C)Oc2ccc(Cl)cc2Cl)no1` (centres undefined), which Potency is on record?
**A.** inconclusive [inhibitor, partial curve, poor fit]

**Q.** `COc1cccc(NC(=O)CN(C)C(=O)c2ccccc2OCC(=O)Nc2cccc(C(F)(F)F)c2)c1` was tested. Which Potency did it give?
**A.** inconclusive [inhibitor, single point]

**Q.** For `CCc1cccc2c1NC(=O)[C@]21[C@@H]2C(=O)N(Cc3ccccc3)C(=O)[C@@H]2[C@@H]2CCCN21`, which Potency is on record?
**A.** inconclusive [inhibitor, single point]

**Q.** `Cc1cccc(C2=NNC(=O)C(c3ccc(Cl)cc3)C2)c1` (centres undefined) was tested. Which Potency did it give?
**A.** inconclusive [inhibitor, single point]

**Q.** How did the Potency turn out when `CN(C[C@H](c1ccccc1)N(C[C@H](Cc1ccccc1)N(CCc1ccccc1)N=O)N=O)N=O` was run?
**A.** inconclusive [inhibitor, single point]

**Q.** How did the Potency turn out when `COc1ccc2[nH]c(CN3CCN(CC(C)C)C(CCO)C3)c(C)c2c1` (centres undefined) was run?
**A.** inconclusive [inhibitor, partial curve, poor fit]

**Q.** With `CCCCCCCCCCCCN1[C@@H](CC(=O)OC)c2cc(F)ccc2S1(=O)=O` as the molecule, how does the Potency read?
**A.** inconclusive [inhibitor, single point]
